Screen size: about 410,000 compounds; about 530 (0.13%) were called active. Inconclusive results, whose numbers are uncertain, are shown with a selection of clear calls. Calls follow the shape of the dose curve; as a rule, active = well fitted inhibition curve with a large enough effect; inconclusive = small, poorly fitted or top-dose-only effect, or another doubt; inactive = no such curve, though single readings can be large or run the other way. Potencies of inconclusive entries are doubtful fits and often do not repeat.
Experiment: qHTS of GLP-1 Receptor Inverse Agonists: Cytotox Screen
Details: HEK293 cAMP-luciferase reporter cells, luminescence, 24 h; activity change, negative = inhibition: at 38.3 µM (top of the series) unless noted
Summary of the method: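 Here, cytotoxicity is scored as loss of luminescence. The MLSMR collection was tested on cells seeded in medium containing 10% Nu serum, with a 24 hr compound exposure preceded by 12 hours of culture.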
For `O=c1[nH]c2ccc(NCc3ccc(-c4cccc(Cl)c4)o3)cc2[nH]1`, the Potency was “inactive”. With `CC(=O)Nc1ncnc2c1c(-c1ccc(Cl)cc1)nn2C(C)(C)C` the Potency was inconclusive: 28.2 µM [inhibitor, single point]. In the case of `COc1ccc2cc(C(=O)N/N=C/c3sc4ccccc4c3O)ccc2c1`, the Potency is reported as “inactive”. In the case of `COc1cc(OC)c(C(=O)O/N=C(\N)c2cccc(C)c2)cc1OC`, the Potency is reported as inconclusive: 14.1 µM [inhibitor, single point]. With `OC(CNCC1(N2CCCCC2)CCCCC1)COc1ccc(Cl)cc1Cl` (stereo not given) the Potency was inconclusive: 22.4 µM [inhibitor, single point]. With `CCOc1ccc(NC(=O)CC2C(=O)N(c3ccccc3)C(=O)N2CCc2ccc(OC)cc2)cc1` (stereo not given) the Potency was “inactive”. For `COc1ccc(Cn2c(C(=O)O)c(CNCc3cccc(OC)c3)c3ccc(C)cc32)cc1`, the Potency was inconclusive: 3.16 µM [inhibitor, full curve, poor fit]. With `CC(C)C[C@@H](CN1CCCC1CN1C(=S)NC[C@@H]1Cc1ccc(O)cc1)N1C[C@H](Cc2ccc(O)cc2)N(CC2CCCCC2)C1=S` (stereo not given in full) the Potency was inconclusive: 28.2 µM [inhibitor, single point]. In the case of `O=C1c2oc3ccccc3c(=O)c2C(c2ccc(Br)cc2)N1c1ccccn1` (stereo not given), the Potency is reported as “inactive”. For `COc1ccc(NC(=O)CSc2c3c(nc4cc(Cl)ccc24)CCCC3)cc1OC`, the Potency was inconclusive: 11.2 µM [inhibitor, single point]. With `COc1ccc(N=C(N)SCc2ccccn2)cc1` the Potency was inconclusive: 28.2 µM [inhibitor, single point]. In the case of `CCCCNC(=O)c1nc(-c2cccnc2)oc1-c1ccc(OC(F)(F)F)cc1`, the Potency is reported as “inactive”. In the case of `Cc1cccc(OCc2cc(=O)n3c(-c4ccccc4)csc3n2)c1C`, the Potency is reported as “inactive”. With `CCCCCN(C(=O)CCC(=O)OCc1ccc(C(C)(C)C)cc1)c1c(N)n(CCCC)c(=O)[nH]c1=O` the Potency was inconclusive: 28.2 µM [inhibitor, single point]. For `CCc1nnc(NC(=O)c2nc(S(=O)(=O)Cc3cccc(C)c3)ncc2Cl)s1`, the Potency was inconclusive: 15.8 µM [inhibitor, single point]. With `Cc1onc(-c2c(Cl)cccc2Cl)c1C(=O)N1CCN(c2ccc(F)cc2)CC1` the Potency was “inactive”. With `Cc1ccc(NC(=O)c2ccc(=O)[nH]c2)cc1S(=O)(=O)N1CCCCC1` the Potency was “inactive”. In the case of `Cc1cc(C)nc(N/N=C/c2ccccc2OCc2cccc(Br)c2)n1`, the Potency is reported as active: 3.98 µM. In the case of `CCCCCN1CSC(=S)N(Cc2ccccc2)C1`, the Potency is reported as inconclusive: 28.2 µM [inhibitor, single point]. In the case of `CCCN1CN(CCc2ccccc2)CNC1=S`, the Potency is reported as inconclusive: 28.2 µM [inhibitor, single point]. With `C[C@H](CO)N1C[C@H](C)[C@@H](CN(C)S(=O)(=O)c2ccccc2F)Oc2ncc(Br)cc2C1=O` the activity change, negative = inhibition was inconclusive: -33.8% [inhibitor]. In the case of `c1ccc(-c2ccc(-c3cnc4n3CCCCC4)cc2)cc1`, the Potency is reported as inconclusive: 3.55 µM [inhibitor, full curve, poor fit]. For `COc1cccc(-c2cc(C(=O)NC3CC3)c3ccccc3n2)c1`, the Potency was inconclusive: 12.6 µM [inhibitor, single point]. In the case of `Cc1ccc(CSCc2nc3ccccc3[nH]2)cc1`, the Potency is reported as inconclusive: 28.2 µM [inhibitor, single point]. For `CC[C@@]1(C(=O)OC)N[C@H](CN(C)C(=O)Nc2ccc(OC)cc2)[C@@H]2C(=O)N(Cc3ccccc3)C(=O)[C@@H]21`, the Potency was “inactive”. In the case of `CCCCC[C@@H](C)N1C[C@H](COCc2ccccc2)Oc2cc(N3CC[C@H](N(C)C)C3)ccc2S1(=O)=O`, the Potency is reported as inconclusive: 28.2 µM [inhibitor, single point]. In the case of `CC(=O)NC(c1ccc(Cl)cc1)c1ccc2cccnc2c1O` (stereo not given), the Potency is reported as inconclusive: 0.891 µM [inhibitor, full curve, poor fit]. In the case of `CN(c1ccccc1)S(=O)(=O)c1ccc(Cl)c(C(=O)Nc2nc3ccccc3[nH]2)c1`, the Potency is reported as “inactive”. For `COC(=O)c1[nH]c2ccc(Cl)cc2c1NC(=O)CCN1CCN(C2CCCCC2)CC1`, the Potency was inconclusive: 10 µM [inhibitor, single point]. With `Cc1cccc2sc(N(CCCN(C)C)C(=O)c3cc4ccccc4oc3=O)nc12` the Potency was inconclusive: 28.2 µM [inhibitor, single point]. In the case of `COc1ccc(CCNC(=O)CCn2c(=O)c3ccccc3n(CC(=O)Nc3ccccc3F)c2=O)cc1OC`, the Potency is reported as “inactive”. For `CC(C)(C)c1ccc(C2Sc3ccccc3NC3=C2C(=O)c2ccccc23)cc1` (stereo not given), the Potency was “inactive”. In the case of `CC(C)=CC(=O)Nc1nc2ccc([N+](=O)[O-])cc2s1`, the Potency is reported as inconclusive: 2.24 µM [inhibitor, full curve, poor fit]. With `CCCN1C(=O)C(NC(=O)c2ccccc2OC)(C(F)(F)F)C(C(=O)OC)=C1C` (stereo not given) the Potency was “inactive”. In the case of `CCCCN1CCc2c1nc1ccc(Br)cc1c2N`, the Potency is reported as inconclusive: 12.6 µM [inhibitor, single point]. In the case of `COc1ccc(-c2cc(N3CCCC3)n3ncnc3n2)cc1`, the Potency is reported as “inactive”. With `COc1ccc(C(=O)NC(=S)N2CCCC2)cc1` the Potency was inconclusive: 31.6 µM [inhibitor, single point]. In the case of `COc1ccc(CN(C)C(=O)c2cc(-c3ccc(C)cc3C)nc3ccccc23)c(OC)c1OC`, the Potency is reported as inconclusive: 14.1 µM [inhibitor, single point]. With `Fc1ccc(NC(=S)NN=C2CCCCCC2)cc1` the Potency was inconclusive: 11.2 µM [inhibitor, partial curve, poor fit]. With `Cc1cc(Br)ccc1NC(=O)c1cc2c(s1)-c1ccccc1SC2` the Potency was “inactive”. For `CCCCCn1c(N2CCC(Cc3ccccc3)CC2)nc2c1c(=O)[nH]c(=O)n2C`, the Potency was inconclusive: 12.6 µM [inhibitor, single point]. In the case of `Cc1ccc(OCc2n[nH]c(=S)n2-c2ccc(Br)cc2)cc1`, the Potency is reported as “inactive”. With `Cc1sc2ncn(CC(=O)Nc3cccc(C(F)(F)F)c3)c(=O)c2c1S(=O)(=O)N1CCC(C)CC1` the Potency was “inactive”. For `Cc1oc(-c2cccc(Cl)c2)nc1CS(=O)(=O)CC(=O)NCCCN1CCOCC1`, the Potency was inconclusive: 28.2 µM [inhibitor, partial curve, poor fit]. With `COc1cccc(/C=C2/Sc3ccc(C(=O)NCCN4CCCC4)cc3NC2=O)c1` the Potency was inconclusive: 20 µM [inhibitor, single point]. With `Cc1ccc(NS(=O)(=O)c2ccc(OCC(=O)Nc3cccc([N+](=O)[O-])c3)c(C)c2)cc1` the Potency was “inactive”. For `CCN(CC)CCC(c1ccc2c(c1)OCO2)c1c(OC)cc(OC)c2ccc(=O)oc12` (stereo not given), the Potency was inconclusive: 1.78 µM [inhibitor, partial curve, poor fit]. In the case of `O=C1CCCC(O)=C1N=Nc1ccc2c(c1)OCO2`, the Potency is reported as “inactive”. With `CC(C)(/C=N/O)/[N+]([O-])=C/c1ccccc1` the Potency was inconclusive: 12.6 µM [inhibitor, single point]. With `CCOc1ccc(C(=O)OCc2cc(=O)n3nc(C4CCCCC4)sc3n2)cc1` the Potency was “inactive”. In the case of `Cc1ccc(S(=O)(=O)N(CCCO)CC(O)CON=C2c3ccccc3-c3ccccc32)cc1` (stereo not given), the Potency is reported as inconclusive: 11.2 µM [inhibitor, partial curve, poor fit]. For `O=S(=O)(Nc1cccc(-c2ccc(N3CCCCC3)nn2)c1)c1cccs1`, the Potency was “inactive”. With `Nc1c(N(Cc2ccco2)C(=O)c2ccccc2F)c(=O)[nH]c(=O)n1Cc1ccccc1` the Potency was “inactive”. For `C#CCOC(=O)Nc1cccn(Cc2c(Cl)cccc2Cl)c1=O`, the Potency was inconclusive: 8.91 µM [inhibitor, partial curve, poor fit]. With `COc1cc2c(cc1OC)-c1n[nH]c(=S)n1C(C)(C)C2` the Potency was inconclusive: 10 µM [inhibitor, partial curve, poor fit]. With `Cc1ccc(-n2c(CSc3nc(C)cc(C)n3)n[nH]c2=S)cc1` the Potency was “inactive”. For `Cc1ccc(/C=C2/Sc3ccccc3N(CC(=O)NCCCOC(C)C)C2=O)cc1`, the Potency was inconclusive: 22.4 µM [inhibitor, single point]. For `O=C(NCc1ccc(F)cc1)C1CCCN(c2nc3ccsc3c(=O)s2)C1` (stereo not given), the Potency was “inactive”. For `CCCc1cc(=O)oc2c(CN(CC)CC)c(O)c(Cl)cc12`, the Potency was “inactive”. For `Cc1ccccc1NC(=O)C(Cl)=C(Cl)Cl`, the Potency was inconclusive: 22.4 µM [inhibitor, single point]. With `Cn1c(C(=O)NCc2ccc(F)cc2)cc2c(=O)n(C)c3ccccc3c21` the Potency was “inactive”. With `CN(C)C1=NC[C@H](Cc2ccccc2)N1CC1CCCCC1` the Potency was inconclusive: 28.2 µM [inhibitor, single point]. With `COc1cccc(/C=N/NC(=S)Nc2cccc(S(=O)(=O)N(C)C)c2)c1` the Potency was inconclusive: 2.82 µM [inhibitor, full curve, poor fit]. In the case of `COc1cccc(/C=N\NC(=O)Cn2nnc3ccccc32)c1O`, the Potency is reported as inconclusive: 12.6 µM [inhibitor, single point]. With `Cc1ccc(N(C)S(=O)(=O)c2cccc(C(=O)OCC(=O)c3c(N)n(C)c(=O)n(C)c3=O)c2)cc1` the Potency was inconclusive: 28.2 µM [inhibitor, single point]. For `O=C(Cn1cc(C(F)(F)F)ccc1=O)NC1CCCC1`, the Potency was “inactive”. For `c1ccc(Oc2cccc(CN3CCOCC3)c2)cc1`, the Potency was inconclusive: 12.6 µM [inhibitor, single point]. In the case of `O=c1c2ccccc2nc(COc2ccccc2)n1/N=C/c1cc([N+](=O)[O-])ccc1O`, the Potency is reported as inconclusive: 28.2 µM [inhibitor, single point]. For `C/C(=N/NC(N)=S)c1ccccc1[N+](=O)[O-]`, the Potency was inconclusive: 31.6 µM [inhibitor, single point]. In the case of `CCc1ccc(C(=O)COC(=O)c2ccco2)cc1`, the Potency is reported as inconclusive: 1.78 µM [inhibitor, full curve].
% is scaled to controls: 0 for no effect and ±100 for the full control effect; potency is read from the fitted curve at half-maximal effect.
